Test results from publication PMC10699790 (Science Advances, 2023).

Target: HA-Halo-mGluR2 (rat, UniProt P31421 19-872, Halo tag labeled with CA-SS-Alexa-488)
Assay: single-molecule pulldown

Sequence of UniProt P31421 (P31421 19-872): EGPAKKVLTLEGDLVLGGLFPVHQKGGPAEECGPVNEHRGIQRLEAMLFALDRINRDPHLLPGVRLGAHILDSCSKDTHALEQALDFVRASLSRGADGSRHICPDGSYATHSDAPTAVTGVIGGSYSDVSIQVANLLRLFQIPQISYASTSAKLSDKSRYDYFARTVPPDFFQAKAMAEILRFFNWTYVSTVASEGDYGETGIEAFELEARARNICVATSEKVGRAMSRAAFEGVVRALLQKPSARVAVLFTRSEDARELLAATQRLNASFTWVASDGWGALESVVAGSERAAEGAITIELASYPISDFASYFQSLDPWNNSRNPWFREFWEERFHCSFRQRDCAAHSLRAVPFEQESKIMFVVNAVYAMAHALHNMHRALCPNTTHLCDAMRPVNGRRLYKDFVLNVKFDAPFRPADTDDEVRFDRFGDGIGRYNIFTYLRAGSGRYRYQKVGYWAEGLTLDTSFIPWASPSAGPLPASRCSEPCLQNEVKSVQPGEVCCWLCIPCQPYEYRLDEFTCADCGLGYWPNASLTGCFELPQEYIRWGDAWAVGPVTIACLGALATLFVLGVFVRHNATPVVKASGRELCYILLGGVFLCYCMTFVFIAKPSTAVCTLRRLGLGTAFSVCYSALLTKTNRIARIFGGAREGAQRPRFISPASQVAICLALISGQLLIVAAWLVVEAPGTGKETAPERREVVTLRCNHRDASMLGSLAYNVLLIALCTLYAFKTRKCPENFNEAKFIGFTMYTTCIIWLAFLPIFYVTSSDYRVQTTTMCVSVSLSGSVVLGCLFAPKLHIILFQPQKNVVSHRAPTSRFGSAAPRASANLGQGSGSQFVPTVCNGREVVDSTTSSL

B1: SNAP-mGluR8 without an HA tag (receptor)
chain: QEYAHSIRVDGDIILGGLFPVHAKGERGVPCGELKKEKGIHRLEAMLYAIDQINKDPDLLSNITLGVRILDTCSRDTYALEQSLTFVQALIEKDASDVKCANGDPPIFTKPDKISGVIGAAASSVSIMVANILRLFKIPQISYASTAPELSDNTRYDFFSRVVPPDSYQAQAMVDIVTALGWNYVSTLASEGNYGESGVEAFTQISREIGGVCIAQSQKIPREPRPGEFEKIIKRLLETPNARAVIMFANEDDIRRILEAAKKLNQSGHFLWIGSDSWGSKIAPVYQQEEIAEGAVTILPKRASIDGFDRYFRSRTLANNRRNVWFAEFWEENFGCKLGSHGKRNSHIKKCTGLERIARDSSYEQEGKVQFVIDAVYSMAYALHNMHKDLCPGYIGLCPRMSTIDGKELLGYIRAVNFNGSAGTPVTFNENGDAPGRYDIFQYQITNKSTEYKVIGHWTNQLHLKVEDMQWAHREHTHPASVCSLPCKPGERKKTVKGVPCCWHCERCEGYNYQVDELSCELCPLDQRPNMNRTGCQLIPIIKLEWHSPWAVVPVFVAILGIIATTFVIVTFVRYNDTPIVRASGRELSYVLLTGIFLCYSITFLMIAAPDTIICSFRRVFLGLGMCFSYAALLTKTNRIHRIFEQGKKSVTAPKFISPASQLVITFSLISVQLLGVFVWFVVDPPHIIIDYGEQRTLDPEKARGVLKCDISDLSLICSLGYSILLMVTCTVYAIKTRGVPETFNEAKPIGFTMYTTCIIWLAFIPIFFGTAQSAEKMYIQTTTLTVSMSLSASVSLGMLYMPKVYIIIFHPEQNVQKRKRSFKAVVTAATMQSKLIQKGNDRPNGEVKSELCESLETNTSSTKTTYISYSNHSI
modifications: SNAP tag labeled with SBG-JF646
stoichiometry N: 1
